{
  "source": "PubChem BioAssay AID686979",
  "about": "(National Center for Advancing Translational Sciences (NCATS), 2013)",
  "note": "Where “and” joins values, the source holds several entries; their conditions need not be identical. Identical values can stand only once. The whole screen tested about 420,000 compounds, of which about 50,000 (12%) were called active. This list was built around the results that the source calls inconclusive (neither active nor inactive); the mix of calls is not that of the screen. The call rests on the fitted dose curve; in most records, active means well fitted inhibition curve with a large enough effect; inconclusive means small, poorly fitted or top-dose-only effect; inactive means flat fitted curve, though single readings scatter. Potencies of inconclusive entries are left out as doubtful fits.",
  "data": [
    {"experiment": "qHTS for Inhibitors of human tyrosyl-DNA phosphodiesterase 1 (TDP1): qHTS in cells in presence of CPT; further: nearly all actives have a fitted effect of over 55% in size; further: potency means the concentration at half of the fitted maximal effect; tags describe the fitted curve by direction and shape", "conditions": "chicken DT40 Tdp1-/-;hTDP1 cells + 20 nM CPT, ATP luminescence, 48 h; series mostly up to 46.2 µM", "method_in_brief": "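Chicken DT40 Tdp1-/- cells complemented with human TDP1, 400 cells/well, exposed to compounds plus 20 nM camptothecin for at least 48 h at 37 C; viability read as ATP content by CellTiter-Glo luminescence.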", "values": [
      {"compound": "CCC(=O)Nc1ccccc1-c1nc2ccccc2n(C(CC)C(=O)Nc2cccc(Cl)c2)c1=O", "note": "(centres undefined)", "Potency": "active: 25.9 µM"},
      {"compound": "CN1/C(=C\\C=C2C(=O)NC(=S)NC2=O)C(C)(C)c2ccccc21", "Potency": "inconclusive [inhibitor, full curve]"},
      {"compound": "O=C(Nc1ccncc1)c1cccn(Cc2ccccc2)c1=O", "Potency": "inconclusive [inhibitor, single point]"},
      {"compound": "COc1ccccc1C1SCC(=O)Nc2c1c(C)nn2-c1cccc(C)c1", "note": "(centres undefined)", "Potency": "inconclusive [inhibitor, single point]"},
      {"compound": "CC1OC(OC2C(O)CC(OC3C(O)CC(OC4CCC5(C)C(CCC6C5CCC5(C)C(C7=CC(=O)OC7)C(O)CC65O)C4)OC3C)OC2C)CC(O)C1O", "note": "(centres undefined)", "Potency": "active: 1.46 µM"},
      {"compound": "CN(C)CCN=Cc1c(O)n(Cc2ccc3c(c2)OCO3)c(=S)[nH]c1=O", "Potency": "inactive"},
      {"compound": "COC(=O)c1ccc(N=C(c2ccccc2)c2c(O)n(C)c(=O)n(C)c2=O)cc1", "Potency": "inconclusive [inhibitor, single point]"},
      {"compound": "c1ccc(-c2nn(-c3ccccc3)[n+](-c3ccccc3)n2)cc1", "Potency": "active: 0.58 µM"},
      {"compound": "O=c1[nH]c(=O)n(CCC2=CCCCC2)c(O)c1/C=N/Nc1cccc2ccccc12", "Potency": "inconclusive [inhibitor, single point]"},
      {"compound": "CC(=O)O[C@@]12CO[C@@H]1C[C@H](O)[C@@]1(C)C(=O)[C@H](O)C3=C(C)[C@@H](O)C[C@@](O)([C@@H](OC(=O)c4ccccc4)C12)C3(C)C", "note": "(some centres undefined)", "Potency": "active: 9.2 µM"},
      {"compound": "O=[N+]([O-])c1ccc(N2CC2)c([N+](=O)[O-])c1", "Potency": "inconclusive [inhibitor, partial curve]"},
      {"compound": "COc1ccc(-c2ccc3n2Cc2cnnn2-c2ccccc2-3)cc1", "Potency": "inconclusive [inhibitor, single point]"},
      {"compound": "CC1CCC[C@H](O)CCCCCc2cc(O)cc(O)c2C(=O)O1", "note": "(some centres undefined)", "Potency": "inactive"},
      {"compound": "CCN1CCN(C(=O)Cc2ccccc2OC)CC1", "Potency": "inactive"},
      {"compound": "O=C(NCCSc1c(-c2ccccc2)[nH]c2ccccc12)c1ccc(S(=O)(=O)N2CCOCC2)cc1", "Potency": "active: 5.8 µM"},
      {"compound": "COc1ccc(C(=O)C2CCCN(Cc3cccc(C)n3)C2)c(OC)c1", "note": "(centres undefined)", "Potency": "inconclusive [inhibitor, single point]"},
      {"compound": "COc1ccc(Cc2nccc3cc(OC)c(OC)cc23)cc1OC", "Potency": "active: 13.3 µM and active: 8.2 µM"},
      {"compound": "CCCc1[nH][nH]c(=O)c1C(c1ccccc1)C(C#N)C#N", "note": "(centres undefined)", "Potency": "inconclusive [inhibitor, partial curve, poor fit]"},
      {"compound": "COc1cccc(NC(=O)c2cccn(Cc3ccccc3C)c2=O)c1", "Potency": "inconclusive [inhibitor, single point]"}
    ]}
  ]
}
